The test concerns the target biotinylated H7 A/Shanghai/02/2013 hemagglutinin (Influenza A virus A/Shanghai/02/2013 …, UniProt R4NN21, strain, biotin (site not stated)). Description: mesoscale discovery (MSD) platform binding assay. The note with it: both partners purified.

B1: L5A7.5 antibody (IgG) (antibody, V domains shown)
VH: QVQLQQSGPGLVKPSQTLSLTCGISGDSVSSDAAAWDWIRQSPSRGLEWLGRTFYRSRWHHDYSESVKNRITINADTSKNQFSLQLTSVTPEDTATYYCARAGVRVFGIIVNSLDYWGQGTLVTVSS
VL: AIQLTQSPSSLSASVGDRVTITCRASQATSSYLAWYQQKPGKAPKLLIYAASTLQSGVPSRFSGSGSGTDFTLTITSLQPEDFATYYCQLSKTFGPGTKVEIK
Consider B1, for which the binding result was “binds”.

Source of the values: paper PMC11169713 (Frontiers in Immunology, 2024).
